These results are taken from the antibiotic and cytotoxicity screens of Wong et al. (2023).

The test system of one assay is HSkMC. Put plainly: cytotoxicity call (relative viability < 0.9). The settings on record: 10 µM.
In another assay the test system is S. aureus RN4220. Description: growth inhibition call (relative growth <= 0.2). Conditions: 50 µM.

The other results are listed elsewhere or left out.

As to `O=C(O)Cc1ccc(CO)cc1`, in the assay on HSkMC, the cytotoxicity call is “inactive”. Further, the growth inhibition call in the assay on S. aureus RN4220 is “inactive”.
`CCOC(=O)[C@H](Cc1c[nH]c2ccccc12)NC(=O)Cn1cc(C(=O)NO)nn1`: the cytotoxicity call with HSkMC is “inactive”. Further, the growth inhibition call in the assay with S. aureus RN4220 was “inactive”.
With `Cc1noc(C)c1S(=O)(=O)Nc1ccc2c(c1)C(=O)N([C@H](C)CO)C[C@H](C)[C@@H](CN(C)C)OCCCC[C@H](C)O2`, the cytotoxicity call in the assay with HSkMC is “inactive”. Also, in the assay with S. aureus RN4220, the growth inhibition call was “inactive”.
Regarding `C[C@H]1CN([C@@H](C)CO)C(=O)Cc2cc(NC(=O)Cc3cn(C)c4ccccc34)ccc2O[C@@H]1CN(C)Cc1ccc(Cl)c(Cl)c1`, the cytotoxicity call in the assay with HSkMC is “active”. In the assay with S. aureus RN4220, the growth inhibition call was “inactive”.
The corresponding values for `COc1ccc(CCN2C(=O)[C@@]3(c4ccc([N+](=O)[O-])cc4)CC(=O)N(C4CCCCC4)[C@@H]3c3ccc(CO)cc32)cc1` are “inactive” and “inactive”.
The corresponding values for `Cc1ccc(S(=O)(=O)N(C)C[C@@H]2Oc3ccc(NC(=O)Cn4cnnn4)cc3C(=O)N([C@@H](C)CO)C[C@@H]2C)cc1` are “inactive” and “inactive”.
As to `C=CC[C@H](CC(=O)NCCO)C(=O)NC[C@@H](OC(=O)[C@@H](CC=C)CC(=O)OC(C)(C)C)c1ccccc1`, in the assay with HSkMC, the cytotoxicity call is “inactive”. Besides, the growth inhibition call in the assay with S. aureus RN4220 is “inactive”.
As to `C[C@H](CO)N1C[C@H](C)[C@H](CN(C)Cc2ccc3c(c2)OCO3)OCCCC[C@H](C)Oc2ccc(NS(=O)(=O)c3ccccc3)cc2C1=O`, in the assay with HSkMC, the cytotoxicity call is “inactive”. In the assay with S. aureus RN4220, the growth inhibition call was “inactive”.
With `CC1(C)OC2CC3C4CC(F)C5=CC(=O)C=CC5(C)C4C(O)CC3(C)C2(C(=O)CO)O1` (stereo not drawn), the cytotoxicity call with HSkMC was “inactive”. Moreover, the growth inhibition call in the assay on S. aureus RN4220 was “inactive”.
`O=c1c(O)c(-c2ccc(O)c(O)c2)oc2cc(O)cc(O)c12`: the cytotoxicity call in the assay on HSkMC was “inactive”. The growth inhibition call in the assay with S. aureus RN4220 is “inactive”.
As to `COCCNC(=O)C[C@H]1C[C@@H]2c3cc(NC(=O)Nc4ccc(C(F)(F)F)cc4)ccc3O[C@@H]2[C@H](CO)O1`, the cytotoxicity call with HSkMC is “inactive”. Further, the growth inhibition call in the assay on S. aureus RN4220 was “inactive”.
Regarding `Cc1noc(C)c1NC(=O)N(C)C[C@H]1OCCCC[C@@H](C)Oc2ccc(NS(=O)(=O)c3cccs3)cc2C(=O)N([C@@H](C)CO)C[C@@H]1C`, the cytotoxicity call in the assay with HSkMC was “inactive”. Moreover, the growth inhibition call in the assay on S. aureus RN4220 is “inactive”.
With `CO[C@H]1CN(C)C(=O)c2cc(NS(=O)(=O)c3cn(C)cn3)ccc2OC[C@@H](C)N(CC2CC2)C[C@@H]1C`, the cytotoxicity call in the assay on HSkMC was “inactive”. Besides, in the assay with S. aureus RN4220, the growth inhibition call is “inactive”.
Take `N=C(N=C(N)N)Nc1ccccc1`: the cytotoxicity call in the assay on HSkMC was “inactive”. The growth inhibition call in the assay on S. aureus RN4220 was “inactive”.
For the compound `C=CC1=C(C)C2=NC/1=C\C1=NC(=C\C3=NC(=C\C4=NC(=C\2)/C(C)=C4CCC(=O)O)/C(CCC(=O)O)=C3C)/C(C=C)=C1C`, the cytotoxicity call with HSkMC is “inactive”. For the same compound, in the assay with S. aureus RN4220, the growth inhibition call was “inactive”.
`Cc1noc(C)c1NC(=O)N[C@H]1C=C[C@@H](CC(=O)N2CCN(C)CC2)O[C@@H]1CO`: in the assay with HSkMC, the cytotoxicity call is “inactive”. The growth inhibition call in the assay on S. aureus RN4220 is “inactive”.
Take `CC(C)NC(=O)Nc1ccc2c(c1)CC(=O)N([C@H](C)CO)C[C@@H](C)[C@@H](CN(C)S(=O)(=O)c1ccccc1)O2`: the cytotoxicity call with HSkMC is “inactive”. Moreover, the growth inhibition call in the assay on S. aureus RN4220 is “inactive”.
Turning to `C[C@H](CO)N1C[C@H](C)[C@H](CN(C)Cc2ccc(Oc3ccccc3)cc2)Oc2ccc(NC(=O)C3CC3)cc2CC1=O`, the cytotoxicity call in the assay on HSkMC was “inactive”. For the same compound, the growth inhibition call in the assay with S. aureus RN4220 is “inactive”.
Regarding `O=C1N(Cc2ccccc2)Cc2ccccc2[C@H]2OC(c3ccc(OCCCO)cc3)=N[C@@]12Cc1ccccc1`, the cytotoxicity call in the assay with HSkMC was “inactive”. Moreover, the growth inhibition call in the assay with S. aureus RN4220 was “inactive”.
For `COc1cccc(S(=O)(=O)N2C[C@H](O)COC[C@H]3O[C@H](CC(=O)NCCCN4CCOCC4)CC[C@@H]32)c1`, the cytotoxicity call in the assay on HSkMC was “inactive”. In addition, the growth inhibition call in the assay with S. aureus RN4220 was “inactive”.
Consider `COCCOC(=O)N1C(=O)[C@@]2(c3ccccc31)[C@H](C(=O)Nc1nc3ccccc3s1)[C@H]1C(=O)O[C@H](c3ccccc3)[C@H](c3ccccc3)N1[C@@H]2c1ccc(OCCO)cc1`, for which the cytotoxicity call in the assay with HSkMC was “inactive”. Besides, the growth inhibition call in the assay with S. aureus RN4220 was “inactive”.
As for `CNC[C@@H]1OCCCC[C@H](C)Oc2ccc(NC(=O)Nc3ccc(C(F)(F)F)cc3)cc2C(=O)N([C@@H](C)CO)C[C@@H]1C`, in the assay on HSkMC, the cytotoxicity call is “inactive”. The growth inhibition call in the assay with S. aureus RN4220 was “inactive”.
`CC(=O)N[C@H]1[C@H](O[C@@H]2[C@@H](O)[C@H](C)O[C@@H](Oc3ccc4c(=O)c(-c5ccc(O)cc5)coc4c3)[C@@H]2O)O[C@H](CO)[C@@H](O[C@@H]2O[C@@H](C)[C@H](O)[C@@H](O)[C@H]2O)[C@@H]1O`: the cytotoxicity call with HSkMC is “inactive”. The growth inhibition call with S. aureus RN4220 is “inactive”.
As for `C[C@H](CO)N1C[C@H](C)[C@H](CN(C)S(=O)(=O)c2cccs2)Oc2ccc(NC(=O)Cn3cnnn3)cc2CC1=O`, in the assay on HSkMC (human skeletal muscle cells), the cytotoxicity call is “inactive”. The growth inhibition call in the assay with S. aureus RN4220 is “inactive”.
